Assay results published in publication PMC7102964.
Results are given in words; binding and its absence hold for the method and conditions named. For part of these data: In cells and extracts the contact can be indirect. Some entries that bind do so weakly or less than the wild type. For part of these data: Tags and fused reporters may be left off the sequences shown.

Amino acid sequences for entries named in this document (tags omitted). Residues count along the entry.
UniProt P43122, residues 31-407: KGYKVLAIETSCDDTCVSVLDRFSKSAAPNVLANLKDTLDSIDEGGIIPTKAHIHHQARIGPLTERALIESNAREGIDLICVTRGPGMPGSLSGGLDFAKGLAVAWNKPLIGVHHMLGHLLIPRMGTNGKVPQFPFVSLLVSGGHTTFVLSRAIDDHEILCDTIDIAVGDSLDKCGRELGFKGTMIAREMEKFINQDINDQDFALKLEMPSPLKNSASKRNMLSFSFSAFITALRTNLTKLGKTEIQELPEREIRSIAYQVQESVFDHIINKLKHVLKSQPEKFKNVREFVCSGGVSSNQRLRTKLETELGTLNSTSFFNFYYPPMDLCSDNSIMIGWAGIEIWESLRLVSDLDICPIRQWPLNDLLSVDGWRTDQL

T1: YrdC with a C-terminal HA tag (human) (UniProt Q86U90)
T1 sequence: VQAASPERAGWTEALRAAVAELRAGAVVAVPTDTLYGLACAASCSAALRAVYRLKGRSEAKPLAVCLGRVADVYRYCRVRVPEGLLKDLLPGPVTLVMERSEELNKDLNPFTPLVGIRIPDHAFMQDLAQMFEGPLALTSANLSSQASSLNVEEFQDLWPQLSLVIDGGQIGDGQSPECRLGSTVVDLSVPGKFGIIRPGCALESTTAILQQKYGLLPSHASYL

T2: OSGEPL1 with a C-terminal FLAG tag or a C-terminal Myc tag (human) (UniProt Q9H4B0)
T2 sequence: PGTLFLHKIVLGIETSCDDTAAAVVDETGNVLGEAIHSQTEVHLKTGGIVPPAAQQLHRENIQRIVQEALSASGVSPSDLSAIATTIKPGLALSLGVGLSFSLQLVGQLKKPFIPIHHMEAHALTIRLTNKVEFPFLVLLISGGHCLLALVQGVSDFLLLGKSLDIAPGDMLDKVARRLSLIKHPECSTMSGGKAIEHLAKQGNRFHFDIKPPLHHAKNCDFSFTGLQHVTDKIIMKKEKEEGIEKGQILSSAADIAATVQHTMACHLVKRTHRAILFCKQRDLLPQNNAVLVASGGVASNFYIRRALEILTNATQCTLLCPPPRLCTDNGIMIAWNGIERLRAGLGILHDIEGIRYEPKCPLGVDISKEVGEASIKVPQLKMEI


Columns and labels:
[1] = biological target: Qri7 with a C-terminal FLAG tag or a C-terminal Myc tag (yeast) (UniProt P43122); assay: co-IP; differently tagged proteins co-expressed in HEK293T; lysis in 50 mM Tris-HCl pH 7.5, 150 mM NaCl, 5 mM EDTA, 1% Triton X-100; anti-FLAG, anti-HA or anti-Myc antibodies overnight, Dynabeads protein G, washed with PBST; western blot
[2] = biological target: Mature OSGEPL1 (Leu35-Ile414) without the MTS (human) (UniProt Q9H4B0); assay: SEC; purified OSGEPL1 on a Superdex 75 column (HPLC), 50 mM Tris-HCl pH 8.0, 150 mM NaCl, 0.5 ml/min; mass from a calibration with five standard proteins; both purified
[3] = biological target: T1, YrdC with a C-terminal HA tag (human); assay: co-IP; differently tagged proteins co-expressed in HEK293T; lysis in 50 mM Tris-HCl pH 7.5, 150 mM NaCl, 5 mM EDTA, 1% Triton X-100; anti-FLAG, anti-HA or anti-Myc antibodies overnight, Dynabeads protein G, washed with PBST; western blot
[4] = biological target: T2, OSGEPL1 with a C-terminal FLAG tag or a C-terminal Myc tag (human); assay: as above

| Molecule | binding [1] | binding [2] | binding [3] | binding [4] |
| --- | --- | --- | --- | --- |
| Mature OSGEPL1 (Leu35-Ile414) without the MTS (enzyme, UniProt Q9H4B0 35-414) LHKIVLGIETSCDDTAAAVVDETGNVLGEAIHSQTEVHLKTGGIVPPAAQQLHRENIQRIVQEALSASGVSPSDLSAIATTIKPGLALSLGVGLSFSLQLVGQLKKPFIPIHHMEAHALTIRLTNKVEFPFLVLLISGGHCLLALVQGVSDFLLLGKSLDIAPGDMLDKVARRLSLIKHPECSTMSGGKAIEHLAKQGNRFHFDIKPPLHHAKNCDFSFTGLQHVTDKIIMKKEKEEGIEKGQILSSAADIAATVQHTMACHLVKRTHRAILFCKQRDLLPQNNAVLVASGGVASNFYIRRALEILTNATQCTLLCPPPRLCTDNGIMIAWNGIERLRAGLGILHDIEGIRYEPKCPLGVDISKEVGEASIKVPQLKMEI | – | no binding | – | – |
| OSGEPL1 with a C-terminal FLAG tag or a C-terminal Myc tag (enzyme, UniProt Q9H4B0 30-414) PGTLFLHKIVLGIETSCDDTAAAVVDETGNVLGEAIHSQTEVHLKTGGIVPPAAQQLHRENIQRIVQEALSASGVSPSDLSAIATTIKPGLALSLGVGLSFSLQLVGQLKKPFIPIHHMEAHALTIRLTNKVEFPFLVLLISGGHCLLALVQGVSDFLLLGKSLDIAPGDMLDKVARRLSLIKHPECSTMSGGKAIEHLAKQGNRFHFDIKPPLHHAKNCDFSFTGLQHVTDKIIMKKEKEEGIEKGQILSSAADIAATVQHTMACHLVKRTHRAILFCKQRDLLPQNNAVLVASGGVASNFYIRRALEILTNATQCTLLCPPPRLCTDNGIMIAWNGIERLRAGLGILHDIEGIRYEPKCPLGVDISKEVGEASIKVPQLKMEI | – | – | no binding | no binding |

The remaining lines, values ahead:

| binding [1] | binding [2] | binding [3] | binding [4] | Molecule |
| --- | --- | --- | --- | --- |
| binds | – | – | – | Qri7 with a C-terminal FLAG tag or a C-terminal Myc tag (from UniProt P43122 31-407) (enzyme) |
| – | – | no binding | no binding | YrdC with a C-terminal HA tag (enzyme, UniProt Q86U90 56-279) VQAASPERAGWTEALRAAVAELRAGAVVAVPTDTLYGLACAASCSAALRAVYRLKGRSEAKPLAVCLGRVADVYRYCRVRVPEGLLKDLLPGPVTLVMERSEELNKDLNPFTPLVGIRIPDHAFMQDLAQMFEGPLALTSANLSSQASSLNVEEFQDLWPQLSLVIDGGQIGDGQSPECRLGSTVVDLSVPGKFGIIRPGCALESTTAILQQKYGLLPSHASYL |
